# Assay results from the supplement of paper PMC3334620.
# The full ranking holds about 33,000 sequences; the median of “E-score (-0.5 to 0.5)” is about -0.035, and the highest 2% start at about 0.34. The list shows a part of the results.
# Molecular target: T1, Mot3 (UniProt P54785)
# T1 sequence: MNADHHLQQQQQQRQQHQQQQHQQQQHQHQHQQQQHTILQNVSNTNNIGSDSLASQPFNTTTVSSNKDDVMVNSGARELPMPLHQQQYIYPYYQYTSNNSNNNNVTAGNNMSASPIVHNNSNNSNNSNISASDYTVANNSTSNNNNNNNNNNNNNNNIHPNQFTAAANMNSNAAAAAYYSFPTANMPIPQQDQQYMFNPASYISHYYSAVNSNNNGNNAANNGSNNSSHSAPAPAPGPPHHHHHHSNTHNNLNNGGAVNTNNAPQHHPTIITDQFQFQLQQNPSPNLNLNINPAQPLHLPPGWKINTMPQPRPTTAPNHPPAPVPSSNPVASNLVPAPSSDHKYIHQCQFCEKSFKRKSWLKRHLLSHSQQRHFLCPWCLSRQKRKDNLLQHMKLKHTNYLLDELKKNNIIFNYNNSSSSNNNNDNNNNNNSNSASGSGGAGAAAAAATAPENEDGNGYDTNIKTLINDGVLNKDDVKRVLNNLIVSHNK
# Assay: PBM E-score (8-mer binding enrichment) (E-score (-0.5 to 0.5)); higher = stronger / more preferred TF binding; most listed sequences are background and not binding sites
# Details: protein concentration: 200 nM; construct: GST-full length
# In short: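 Full-length yeast transcription factors or their DNA-binding domains, GST-tagged and expressed with PURExpress, were applied at about 100-200 nM to universal all-10-mer Agilent arrays. These arrays had been made double-stranded by primer extension on fresh or once-stripped slides. Detection used fluorescent anti-GST, normalisation used masliner, and E-scores for ungapped eight-base words pooled with reverse complements came from the Universal PBM Analysis Suite.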
row,Sequence,PBM E-score
1,AAACTACG,0.0222
2,AACTAAAA,0.108
3,CACTCCCA,-0.106
4,TGGTGTAA,0.186
5,ATTCGTCG,-0.0541
6,ATTACAAT,0.299
7,CGCATGAG,-0.157
8,AACGTATA,0.119
9,GCTGATAA,0.0326
10,GGACTACA,0.102
11,AATGCAGA,-0.00015
12,CCCCTCGC,-0.41
13,CGTTCGAA,-0.159
14,CATAGATC,-0.0706
15,CGGAAAAC,0.0409
16,CGTCTTAG,-0.0371
17,CGCTGTAG,-0.123
18,AACTCAGG,0.0371
19,ATAGCAGG,0.0115
20,GACCAGAC,-0.23
21,CGGTCCCC,-0.28
22,ACGCGGAG,0.105

row,Sequence,PBM E-score
1,GGGCCGTA,-0.224
2,AGGAGATA,-0.036
3,ATAATGAA,0.08
4,ATTTAGGA,0.115
5,AAGAGTCC,-0.325
6,GCCTCTGA,-0.0212
7,ACCCAGAA,0.118
8,AGGACTAC,-0.121
9,AAATTAGG,0.0359
10,ATCCCTGC,-0.0769
11,AATAATTC,0.106
12,ACATGCCA,0.304
13,CCGCTCTC,-0.26
14,CTCGTCAG,-0.00992
15,AGGATTTG,-0.109
16,TGACGTAA,0.258
17,CGCCTTGC,0.0442
18,CATGGCGA,-0.075
19,ATGTTGGG,0.114
20,CTACCACA,0.0407
21,ATATGACA,0.1
22,CCGCCTGC,-0.254

row,Sequence,PBM E-score
1,CCACTCAA,-0.0799
2,GCTAGGCA,0.446
3,ACACCTTC,0.197
4,AGGACGGC,-0.00286
5,AGCCGCGG,-0.228
6,ATTCGACA,0.206
7,GGGGGAGA,-0.223
8,CATAAAAC,0.0164
9,CCAGCTGA,-0.0351
10,AACCCTTA,0.136
11,TACAGCAA,0.0763
12,AACTGAAC,-0.0966
13,CGGGTTCC,0.137
14,AGGAAGGA,0.0926
15,CGTCTGGC,-0.144
16,CTACGCAG,0.213
17,AGGCTCCG,0.223
18,CCGGCAGC,-0.343
19,ATACACAA,0.324
20,AAACGGGG,-0.0742
21,GCTGTAAA,0.25
22,ATCGCAGC,-0.296

row,Sequence,PBM E-score
1,TCACAACA,0.313
2,GTCGCCAA,-0.274
3,GAATTTAA,-0.02
4,TAGAAACA,0.202
5,GATATTGA,-0.109
6,TCGAGTCA,-0.115
7,CACCAACA,0.0532
8,AAGAACTA,0.085
9,CATCTGTA,-0.0963
10,AGTGGCTC,-0.172
11,AGGTACAG,0.332
12,CGCGAGTC,-0.148
13,CGAGTGTA,0.0972
14,ACACGGAT,0.302
15,CCTATAGG,0.113
16,CACCGCCC,-0.0948
17,CTTGCTGA,-0.121
18,ACAATACT,0.0808
19,AAGCTTCA,-0.264
20,CTAGGACA,-0.00867
